# Source: the RNAGym collection of RNA variant scans (doi:10.7554/elife.90254)
# Read counts are not given, so values of variants with three or more changes are uncertain.
# B1: OR4K15 (parent)
# chain: GUUAACGGUCAUAGGCCAUGGAAACUAGGAGCACCAUUUCGCUGCCAGUGAAGAAAUGAACAAAGAAAAUCUGGGCCAGGCAGGCAUCAAAAGAAAUAGUCUUGCGCUCAACCAGAAAGUCUGUAAUCAUUUUAAGGGUA
# Variants of: B1
# Assay: self-cleavage, relative activity (ratio to wild type); higher = more cleavage; in vitro, sequencing; the parent is a self-cleaving ribozyme
row,Variant,self-cleavage
1,GUUAACGGUCAUAGGCCAUGGAAACUAGGAGCACCAUCUCGCUGCCGGUGAAGAAAUGGACAAAGAAAAUCUGGGCCAGGCAGGCAUCAAAAGAAAUAGUCUUGCGCUCAACCAGAAAGUCUGUAAUCAUUUCAAGGGUA,0.85
2,GUUAACGGUCAUAGGCCAUGGAAACUAGGAGCACCAUAUCGUUACCAGUGAAGAAAUGAACAAAGAAAAUCUGGGCCAGGCAGGCAUCAAAAGAAAUAGUCUCGCGCUCAACCAGAAAGUCUGUAAUCAUUUUAAGGGUA,1.32
3,GUUAACGGUCAUAGGCCAUGGAAACUAGGAGCACCAUAUCGCUGCCAGUGAAGAAAUGAACAGAGAAAAUCUGGGCCAGGCAGGCAUCAAGAGAAAUAGUCUUGCGCUCAACCAGAAAGUCUGUAAUCAUUUUAAGGGUA,0.91
4,GUUAACGGUCAUAGGCCAUGGAAACUAGGAGCACCAUCUCGCUGCCGGCGAAGAAAUGAGCAUAGAAAAACUGGGCCAGGCAGGCAUCAAAAGAAAUAGUCUUGCGCUCGACCAGAAAGUCUGUAAUCAUUUUAAGGGUA,0.1
5,GUUAACGGUCAUAGGCCAUGGAAACUAGGAGCACCAUCUCGCUGCCAGUGACGAAAUGAACAAAGAAAAUCUGGGCCAGGCAGGCAUCAAAAGAAAUAGUCUUGCGCUCGACCAGAAAGUCUGUAAUCAUUUUAAGGGUA,0.11
6,GUUAACGGUCAUAGGCCAUGGAAACUAGGAGCACCAUAUCGCUGCCAGUGAGGAAAUGAGCAAAGAAAAUCUGGGCCAGGCAGGCAUCAAAAGAAAUAGUCUUGCGCUCAACCAGAAAGUCUGCAAUCAUUUUAAGGGUG,0.3
7,GUUAACGGUCAUAGGCCAUGGAAACUAGGAGCACCAUAUCGCUGCCAGUGAAGAAAUGAACAAAGAAAAUCUAGGCCAGGCAGGCAUCAAAAGAAAUAGUCUUGCGCUCGACCAGAAAGUCUGUAAUCAUUUUAAGGGUA,0.03
8,GUUAACGGUCAUAGGCCAUGGAAACUAGGAGCACCAUAUCGCUGCCAGUGAAGAAAUGAACAAAGAAAAUCUGGGCCAGGCAGGCGCCAAAAGAAAUAGUCUUGCGCUCAACCAGAAAGUCUGUAAUCACUUUAAGGGUA,0.9
9,GUUAACGGUCAUAGGCCAUGGAAACUAGGAGCACCAUAUCGCUGCCAGUGAAGAAAUGAACAAAGAAAAUCUGGGCCAGGCAGGCAUCAAAGGAAAUAGUCUUGCGCUCGACCAGAAAGUCUGUAAUCAUUUUGAGGGUA,0.08
10,GUUAACGGUCAUAGGCCAUGGAAACUAGGAGCACCAUCUCGCUGCCAGUGUAGAAAUGAACAGAGAAAAUCUGGGCCAGGCAGGCAUCAAAAGAAAUAGUCUUGCGCUCAACCAGAAAGUCUGUAAUCAUUUUAAGGGUA,1.69
11,GUUAACGGUCAUAGGCCAUGGAAACUAGGAGCACCAUAUCGCUGCCAGUGAAGAAAUGAACAAAGAAAAUCUGGGCCAGGCAGGCAUCAAAAGAAAUAGUCUUGCGCUCAACCAGAAAGUCUGUAAUCACUUUUAGGGUA,1.03
12,GUUAACGGUCAUAGGCCAUGGAAACUAGGAGCACCAUAUCGCUGCCAGUGAAGAGAUGAACAAAGAAAAUCUGGGCCGGGCAGGCAACAAAAGAAAUAGUCCUGCGCUCAACCAGAAAGUCUGUAAUCAUUUUAAGGGUA,0.39
13,GUUAACGGUCAUAGGCCAUGGAAACUAGGAGCACCAUCUCGCUGCCGGUGAAGAAAUGAACAAAGAAAAUCUGGGCCAGGCAGGCAUCAAAAGAAAUAGUCUUGCGCUCAACCAGAUAGUCUGUAAUCAUUUCAAGGGUA,0.59
14,GUUAACGGUCAUAGGCCAUGGAAACUAGGAGCACCAUAUCGCUGCCAGUGAAGAAAUGAACAAGGAAAAUCUGGGCCAGGCAGGCAUCAAAAGAAGUAGUCUUGCGUUUAACCAGAAAGUCUGUAAUCAUUUUAUGGGUA,0.01
15,GUUAACGGUCAUAGGCCAUGGAAACUAGGAGCACCAUAUUGCUGCCAGUGAAGAAAAGAACAAAGAAAAUCUGGGCCAGGCAGGCAUCAAAAGAAAUAGUCUUGCGCUCAACCAGAAAGUCUGUAAUCAUUUUAAGGGUA,1.07
16,GUUAACGGUCAUAGGCCAUGGAAACUAGGAGCACCAUAUCGCUGCCAGUGAAGAAAUGAACAAAGAAAAUCUGGGCCAGGCAGGCAUCGAAAGAAAUAGUCUUGCGCUCAACCAGAAAGUCUGUGAUCAUUUUAAGGGUA,0.48
17,GUUAACGGUCAUAGGCCAUGGAAACUAGGAGCACCAUCUCGCUGCCAGUGAAGGAAUGAACUAAGAAAAUCUGGGCCAGGCAGGCAUCAAAAGAAAUAGUCUUGCGCUCAGCCAGAAAGUCUGUAAUCAUUUUAAGGGUA,0.02
18,GUUAACGGUCAUAGGCCAUGGAAACUAGGAGCACCAUAUCGCCGCCAGUGAAGAAAUGAACAAAGAAAAUCCGGGCCAGGCAGGCAUCAAAAGAAAUAGUCUGGCGCUCAACCAGAAAGUCUGUAAUCAUUAUAAGGGUA,0.02
19,GUUAACGGUCAUAGGCCAUGGAAACUAGGAGCACCAUAUCGCUGCCAGUGAAGAAAUGAACAAAGAAAAUCUGGGCCAGGCAGGCAUCAAAAGAAAUAGUCUUGCGCUCAACCAGAGAGUCUGUAGUCAUUGUAAGGGUA,2.54
20,GUUAACGGUCAUAGGCCAUGGAAACUAGGAGCACCAUAUCGCUGCCAGUGAAGAAAUGAACAAAGAAGAUCUGGGCCAGGCAGGCAUCAGAGGAAAUAGUCUUGCGCUCAACCAGAAAGUCUGUAAUCAUUUUAAGGGUA,0.88
21,GUUAACGGUCAUAGGCCAUGGAAACUAGGAGCACCAUAUCGCUGCCAGUGAAGAAAUGAACAAAGAAAAUCUGGGCCAGGCAGGCAUCUAAAGAAAUAGUCUUGCGCUCCACCAGAAAGUCUGUAAUCAUUUUAAGGGUA,0.26

row,Variant,self-cleavage
1,GUUAACGGUCAUAGGCCAUGGAAACUAGGAGCACCAUCUCGCUGCCUGUGAAGAAAUGAACAAAGAAAAUCUGGGCCAGGCAGGCAUCAGAAGAAAUAGUCGUGCGCACAACCAGAAAGUCUGUAAUCAUCUUAAGGGUA,0
2,GUUAACGGUCAUAGGCCAUGGAAACUAGGAGCACCAUCUCGCUGCCAGUGGAGAAAUGAACAAAGAAAAUCUGGGCCAGGCAGGCAUCAAAAGAAAUAGUCUUGCGCUCAACCGGAAAGUCUGUAAUCACUUUAAGGGUA,0.24
3,GUUAACGGUCAUAGGCCAUGGAAACUAGGAGCACCAUAUCGCUGCCAGUGAGGAAAUGAACAAAGAAAAUCUGGGCCAGGCAGGCGUCAAAAGAAAUAGUCUUGCGCUCAACCAGAGAGUCUGUAAUCAUUUUAAGGGUA,1.38
4,GUUAACGGUCAUAGGCCAUGGAAACUAGGAGCACCAUAUCGCUGCCAGUGAAGAAAUGGACAAAGAAAAUCUGGGCCAGGCAGGCAUCAAGAGAAAUAGUCUUGCGCUCAACCAGAAAGUCUGUAAUCAUUUUAAGGGUA,0.77
5,GUUAACGGUCAUAGGCCAUGGAAACUAGGAGCACCAUAUCGCUGCCAGUGAAGAAAUGAACAAAGAAAACCUGGGCCAGGCGGGCAUCAAAAGAAAUAGUCUUGCGCUCAACCAGAAAGUCCGUAAUCAUUUUAAGGGUA,0.05
6,GUUAACGGUCAUAGGCCAUGGAAACUAGGAGCACCAUAUCGCUGCCAGUGAAGAAAUGAACAAAGAAAAUCUGGGCCAGGCAGGCAUCAAAAGAAGUAGUCUUGCGCUCAACCAGAAAGUCCGUAAUCAUUUUAAGGGUA,0.98
7,GUUAACGGUCAUAGGCCAUGGAAACUAGGAGCACCAUCUCGCUGCCAGUGAGGAAAUGAACAAAGAAAAUCUGGGCCAGGCAGGCAUCAAAAGAGAUAGUCUUGCGCUCAACCAGAAAGUCUGUAAUCAUUUUAAGGGUA,1.68
8,GUUAACGGUCAUAGGCCAUGGAAACUAGGAGCACCAUAUCGCUGCCAGUGAAGUAAUGAACAAAGAAAAUCUGGGCCAGGCAGGCACCAAAAGAAGUAGUCUUGCGCUCAACCAGAAAGUCUGUAAUCAUUUUAAGGGUA,2.28
9,GUUAACGGUCAUAGGCCAUGGAAACUAGGAGCACCAUCUCGCUGCCUGUGAAGAAAUGAACGAAGAAAAUCCGGGCCAGGCAGGCAUCAAAAGAAAUAGUCUUGCGCUCAACCAGAAAGUCUGUAAUCAUUUUAAGGGUA,0.07
10,GUUAACGGUCAUAGGCCAUGGAAACUAGGAGCACCAUCUCGCUGCCAGUGGAGAAAUGAACAAAGGAAGUCUGGGCCAGGCAGGCAACAAAAGAAAUAGUCUUGCGCUCAACCAGAAAGUCUGCAAUCAUUUUAAGGGUA,0.73
11,GUUAACGGUCAUAGGCCAUGGAAACUAGGAGCACCAUCUCGCUGCCAGUGUAGAAAUGAACAAAGAAAAUCUGGGCCAGGCAGGCAUCGAAAGAAGUAGUCUUGCGCUCAACCAGAAAGUCUGUAAUCAUUUUAAGGGUA,2.04
12,GUUAACGGUCAUAGGCCAUGGAAACUAGGAGCACCAUCUCGCUGCCAGUGAUGAAAUGAACAAAGAAAAUCCGGGCCAGGCAGGCAUCGAAAGAAAUAGUCUUGCGCUCAACCAGAAAGUCUGUAAUCAUUUUAAGGGUA,0.26
13,GUUAACGGUCAUAGGCCAUGGAAACUAGGAGCACCAUCUCGCUGCCAGUGAGGAAAUGAACAAAGAAAAUCUGGGCCAGGCGGGCAUCAAAAGAAAUAGUCUUGCGCUCAACCAGAAAGUCUGUAAUCAUUUUAAGGGUA,0.87
14,GUUAACGGUCAUAGGCCAUGGAAACUAGGAGCACCAUAUCGCUGCCAGUGAAGAAAUGAACAAAGAAAAUCUGGGCCAGGCCGGCAUCAAAAGAAAUAGUCUUGCGCUCAACCAGAAGGUCCGUAAUCAAUUUAAGGGUA,0.06
15,GUUAACGGUCAUAGGCCAUGGAAACUAGGAGCACCAUAUCGCUGCCAGGGAAGAAACGAACAAGGAAAAUCUGGGCCAGGCAGGCAUCAAAAGAAGUAGUCCUGCGCUCAACCAGAAAGUCUGUAAUCAUUUUAAGGGUA,1.06
16,GUUAACGGUCAUAGGCCAUGGAAACUAGGAGCACCAUAUCGCUGCCAGUGAAGAAAUGAACAGAGAGAAUCUGGGCCAGGCAGGCAUCAAAGGAAAUAGUCUUGCGCUCAACCAGAAAGUCUGUAAUCAUUUUAAGGGUA,1.64
17,GUUAACGGUCAUAGGCCAUGGAAACUAGGAGCACCAUCUCGCUGCCGGUGAAGAAAUGAACAAAGAAAAUCUGGGCCAGGCAGGCCUCAAAAGAAAUAGUCUUGCGCUCAACCAGAGAGUCUGUAAUCAUUUUAAGGGUA,0.44
18,GUUAACGGUCAUAGGCCAUGGAAACUAGGAGCACCAUCUCGCUGCCAGUGAGGAAAUGAACAAAGAAAAUCUGGGCCAGGCAGGCAUCAAAAGAAAUAGUCUUGCGCUCAACCAGAAAGUCUGUAAUCAUCUUAAGGGUA,2.12
19,GUUAACGGUCAUAGGCCAUGGAAACUAGGAGCACCAUAUCGCUGCCAGUGAAGAUAUGAACAAAGAAAAUCUGGGCCAGGCAGGCAUCAAAAGAAAUAGUCUUGCGCUCAACCAGAAAGUCUGUAAUCAUUCUAAGGGUA,2.17
20,GUUAACGGUCAUAGGCCAUGGAAACUAGGAGCACCAUAUCGCUGCCAGUGAAGAAAUGAACAAAGAAAAUCUGGGCCAGGCAGGCAUCAAAAGAAAUAGUCUUGCGCUCAACCAGAAAGUCUGUAUUCAUUUUAAGGGCA,1.87
